The source of these data is the RNAGym collection of RNA variant scans (doi:10.7554/elife.90254).

The labels stand for the following.
B1: LINE1-mini (parent)
chain: GGCAGAGCUCAACACAGCGUGGCAAAGUGGCUGUGGCUAGACUGCC

The source gives no read counts; variants with many changes may rest on few reads.

The variants in the data set derive from B1. Kind of data set: self-cleavage, relative activity (ratio to wild type); higher = more cleavage; in vitro, sequencing; the parent is a self-cleaving ribozyme.
In the case of GGCAGAGCUCAAGACGGCGUGGCAAAGUGGCUGUGGCGAGACUGCC [C13G A16G U38G], the self-cleavage was determined as 0.
To GGCAGAGCUCAAAACAGCGCGGCAAAGUGGAUUUGGCUAGACUGCC [C13A U20C C31A G33U] belongs 0.06; to GGCAGAGCUCAAGACAGCGUGGCAAAGUGGCUGUGGCUGGACCGCC [C13G A39G U43C], 0.02.
Next, GGCAGAGCUCAAGUCAGCGUGGCAAAGUGGAUGUGGCUAAAGUGCC [C13G A14U C31A G40A C42G]: 0.02.
Take GGCAGAGCUCAAGGCAGCGUGGCAAACCGGCUGUGGCUAGACUGCC [C13G A14G G27C U28C]: the self-cleavage was 0.03.
As for GGCAGAGCUCAAGACAGCGUGGCAAGCUGGCUGUGGCUAGACUUCC [C13G A26G G27C G44U], the self-cleavage was determined as 0.04.
Next, GGCAGAGCUCAAAACAGCGUGGCAAAGUGGCAGUGGCUCGACUGCC [C13A U32A A39C]: 0.05.
To GGCAGAGCUCAAAACAGCGUGGCAAAGUGGCUGUGUCUAGACUUCC [C13A G36U G44U] belongs 0.05; to GGCAGAGCUCAAAACAGCGCGGCAAAGUGGCUGUAGCUAGACUGCC [C13A U20C G35A], 0.06.
To GGCAGAGCUCAAGACAGCGUGGCAUAGUGGCUCUGGCUAGGCCGCC [C13G A25U G33C A41G U43C] belongs 0.02; to GGCAGAGCUCAAGUCAGCGUGGCAAAGUGGCUGUGGCAAGACUGCC [C13G A14U U38A], 0.03; to GGCAGAGCUCAAAACAGCGAGGAAAAGUGGCUGUGGCUGGACUGCC [C13A U20A C23A A39G], 0.06.
Regarding GGCAGAGCUCAAGACAGCGUGGUAAAGUGGUUCUGGCUAGACUGCC [C13G C23U C31U G33C], the self-cleavage came out at 0.02.
Consider GGCAGAGCUCAAGACAACGUGGCAGAGUUGCUGUGGCUAGACUGCC [C13G G17A A25G G29U], for which the self-cleavage amounted to 0.
Next, GGCAGAGCUCAAGACAGUGUGGCAAAGUGGCUGUGUCUAGACAGCC [C13G C18U G36U U43A]: 0.01; GGCAGAGCUCAAAACAGCGCGGCAAAGUGGCUGCGGAUAGACUGCC [C13A U20C U34C C37A]: 0.03; GGCAGAGCUCAAGAAAGCGUGGCAAAGUGACUGUGGCUAGACUGCC [C13G C15A G30A]: 0.12.
Next, GGCAGAGCUCAAAACAGCGUGGCAAAGUGGCUGGGGCUAGACUGUC [C13A U34G C45U]: 0.01; GGCAGAGCUCAAGACAGCGUGGCAAUGUGGCUGUGGCUAGAGUGCC [C13G A26U C42G]: 0.08.
To GGCAGAGCUCAAAACAGCGUGGCAAAGGGGUUGUGGCUAGACUGCC [C13A U28G C31U] belongs 0.04; to GGCAGAGCUCAAGACAGAGUCGCAAAGUGGCUGUGUCUAGACUGCC [C13G C18A G21C G36U], 0.03.
For the variant GGCAGAGCUCAAAACAGCGUGGCAAAGUGGCUGUGUCUAGACUGCU [C13A G36U C46U], the self-cleavage was found to be 0.35.
With GGCAGAGCUCAAGACAGCGUGGGAAAGUGGCUGUGGCUACACUGCC [C13G C23G G40C], the self-cleavage was found to be 0.
As to GGCAGAGCUCAAGACCGCGUGGCAAAGUAGCUGUGGCUAGCCUGCC [C13G A16C G29A A41C], the self-cleavage is 0.07.
To GGCAGAGCUCAAAACAGCGUGGCAAAGUGGCUGUGGCUAUACUGCA [C13A G40U C46A] belongs 0.03; to GGCAGAGCUCAAGAGAGCGUGGCAAAGUGGCUGUGACUAGACUCCC [C13G C15G G36A G44C], 0.06; to GGCAGAGCUCAAGAGCGCGUGGCAAAGUGGCUGUGGCUAGAAUUGC [C13G C15G A16C C42A G44U C45G], 0.04.
For the variant GGCAGAGCUCAAGACCGCGUAGCAAAGUGGCUGUCGCUAGAGUGAC [C13G A16C G21A G35C C42G C45A], the self-cleavage amounted to 0.08.
Next, GGCAGAGCUCAAGACAGCGUGGCAGAGUGGCAGUGGCUAGACUGCC [C13G A25G U32A]: 0.23.
To GGCAGAGCUCAAAACAGCGUGGCAAAGUGGCUGUGACUAGAAUGCC [C13A G36A C42A] belongs 0.09; to GGCAGAGCUCAAGACAGCGUGGCAAAGUGGGUGUGGCUAGAUUGCC [C13G C31G C42U], 0.09.
To GGCAGAGCUCAAGACAGCGUGGCUAAGAGGCUGUGGCUAGACUGCC [C13G A24U U28A] belongs 0.06; to GGCAGAGCUCAAAACAGCGCGGCAAAGUGGCUGUGGCUAGAAUGCC [C13A U20C C42A], 0.05; to GGCAGAGCUCAAGACAGUGUGGCAAAGUGGCUGAGGCUUGACUGCC [C13G C18U U34A A39U], 0.06.
For the variant GGCAGAGCUCAAGACCGCGUGGCAAAAUGGCUGUGGCAAGACUGCC [C13G A16C G27A U38A], the self-cleavage worked out at 0.15.
To GGCAGAGCUCAAGACAGCGUGGCACAGUGGCUGUGGGUAGACUGCC [C13G A25C C37G] belongs 0.02.
As for GGCAGAGCUCAAGUCAGCGUGGCAAAGUGGCUGUGGCUAGAUUGCC [C13G A14U C42U], the self-cleavage was found to be 0.05.
To GGCAGAGCUCAAGACAGCGUGGCAAAGUGGCUGUGGCUUGAUUGCC [C13G A39U C42U] belongs 0.06; to GGCAGAGCUCAAGACAGCGUGGCAAAGUGGUUUUGUCUAGAUUGCC [C13G C31U G33U G36U C42U], 0.08; to GGCAGAGCUCAAAACAGCGUGGCAAAGUGGCAGUGGCUAGAACUGC [C13A U32A C42A U43C G44U C45G], 0.
To GGCAGAGCUCAAGACGGCGUAGCAAAGUGGUUGUGGCUAGACUGCC [C13G A16G G21A C31U] belongs 0.03; to GGCAGAGCUCAAGAGAGCGUUGCAACGUGGCUGUAGCUAGAAUGCC [C13G C15G G21U A26C G35A C42A], 0.
Next, GGCAGAGCUCAAGUCAGCGUGGCAAAGUGGCUGAGGCUAGACUGCC [C13G A14U U34A]: 0.01; GGCAGAGCUCAAGACGGCGUGGCAAAGUGGCUGUGGCUAGACUUCC [C13G A16G G44U]: 0.04.
Consider GGCAGAGCUCAAGACAGGGUGGAAAAGUGGCUGUGGCUAGAGUUCC [C13G C18G C23A C42G G44U], for which the self-cleavage came out at 0.02.
Next, GGCAGAGCUCAAGGCAGCGUGGCAAAGUGGCUCUGGCUAGACUGCC [C13G A14G G33C]: 0.04; GGCAGAGCUCAAGACGACGUGGCAAAGUGGCUGUGGCUAGACUGCC [C13G A16G G17A]: 0.06; GGCAGAGCUCAAGACAGUGUGGCAAAGUGGCUGGGGCUAGACUGCC [C13G C18U U34G]: 0.
To GGCAGAGCUCAAGUCAGCGUGGGAAAGUGGCUGUUGCUAGACUGAC [C13G A14U C23G G35U C45A] belongs 0.09; to GGCAGAGCUCAAGAAAGCGUGGCAUAGUGGCUGUGGCUAGACUGCC [C13G C15A A25U], 0.03.
Next, GGCAGAGCUCAAGACCACGUGGCAAAGUUGCUGUGGCUAGACUGAC [C13G A16C G17A G29U C45A]: 0.04; GGCAGAGCUCAAGCCAGCGUGGCAAAGUGGCUGUGGCUGGACUGCC [C13G A14C A39G]: 0.06.
As for GGCAGAGCUCAAAACAGCGAGGCUAAUUGGCUGUGGCUAGACAGCC [C13A U20A A24U G27U U43A], the self-cleavage was 0.02.
To GGCAGAGCUCAAGACCUCGUGGCAAAGUGGCUGUGGCUAGACUGCC [C13G A16C G17U] belongs 0.13.
To GGCAGAGCUCAAAACAGCGAGGCAAAGUGCCUGUGGCUAGACUUCC [C13A U20A G30C G44U] belongs 0.03; to GGCAGAGCUCAAGACAGCGUGGAAAAGUGGCUGUGGCUAGGGUGCC [C13G C23A A41G C42G], 0.02.
